Reference: paper PMC4336329 (PLoS ONE, 2015)
Out of some 310,000 compounds screened, about 14,000 (4.5%) showed an effect of 50% or more. Effects have a minus sign here. Some of the results follow.

target: human ether-à-go-go-related gene (hERG) potassium channel (human, UniProt Q12809); assay: primary screen, population patch clamp on CHO cells stably expressing hERG
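Further: peak tail current of the secondary pulse compared with the same well before compound.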

Chain of human ether-à-go-go-related gene (hERG) potassium channel (Q12809 whole entry, looked up): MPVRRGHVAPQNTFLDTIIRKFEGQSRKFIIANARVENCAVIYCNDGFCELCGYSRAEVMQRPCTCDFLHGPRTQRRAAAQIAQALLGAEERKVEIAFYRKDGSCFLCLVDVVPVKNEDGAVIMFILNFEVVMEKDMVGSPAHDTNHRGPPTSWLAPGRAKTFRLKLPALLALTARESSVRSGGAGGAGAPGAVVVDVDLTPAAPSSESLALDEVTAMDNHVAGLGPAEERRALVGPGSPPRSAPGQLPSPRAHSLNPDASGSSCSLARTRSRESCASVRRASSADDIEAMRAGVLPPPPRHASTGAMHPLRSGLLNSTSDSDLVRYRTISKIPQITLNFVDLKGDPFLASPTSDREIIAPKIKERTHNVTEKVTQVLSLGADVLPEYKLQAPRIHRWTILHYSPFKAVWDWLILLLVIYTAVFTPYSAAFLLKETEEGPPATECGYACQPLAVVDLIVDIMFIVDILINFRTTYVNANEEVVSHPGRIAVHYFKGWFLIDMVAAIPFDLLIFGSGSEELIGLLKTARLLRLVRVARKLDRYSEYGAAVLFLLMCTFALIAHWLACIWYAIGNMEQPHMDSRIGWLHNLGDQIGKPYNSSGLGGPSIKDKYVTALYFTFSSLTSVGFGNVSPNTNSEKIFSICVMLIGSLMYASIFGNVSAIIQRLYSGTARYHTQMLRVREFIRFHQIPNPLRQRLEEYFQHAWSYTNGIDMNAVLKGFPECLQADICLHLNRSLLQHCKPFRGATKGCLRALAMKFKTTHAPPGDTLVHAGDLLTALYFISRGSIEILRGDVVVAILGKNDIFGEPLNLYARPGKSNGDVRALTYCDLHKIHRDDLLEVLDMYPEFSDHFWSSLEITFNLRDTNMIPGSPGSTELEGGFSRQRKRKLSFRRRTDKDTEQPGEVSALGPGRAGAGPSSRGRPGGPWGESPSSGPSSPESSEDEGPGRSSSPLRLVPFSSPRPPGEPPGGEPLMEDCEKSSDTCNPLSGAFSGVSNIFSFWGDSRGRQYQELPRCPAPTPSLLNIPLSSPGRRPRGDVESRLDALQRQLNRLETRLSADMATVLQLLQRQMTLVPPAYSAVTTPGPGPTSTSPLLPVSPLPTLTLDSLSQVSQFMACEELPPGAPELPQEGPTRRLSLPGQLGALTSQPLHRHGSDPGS

Row | SMILES | hERG current change (%, negative = inhibition) at 10uM [%]
1 | Cn1c(O)c(C(=Nc2ccc(F)cc2)c2ccccc2)c(=O)n(C)c1=O | 12.2
2 | Cl.Fc1ccccc1N1CCN(C(c2cccs2)c2nnnn2CCc2ccccc2)CC1 (centres unmarked) | 5.92
3 | Cc1nn(C(C)(C)C)c(NC(=O)c2ccc(Cl)cc2)c1Br | 11.6
4 | Cc1nccn1CC(=O)N/N=C/c1cccc(O)c1 | 18.8
5 | Cc1ccc(NC(=O)c2ccc(Cl)c(S(=O)(=O)NCC3CCCO3)c2)c(O)c1 (centres unmarked) | 10.6
6 | O=C(c1ccco1)N1CCN(C(=O)c2ccccc2[N+](=O)[O-])CC1 | 22.4
7 | CS(=O)(=O)c1ccc(C(=O)Nc2cc(S(C)(=O)=O)ccc2Cl)cc1 | -6.33
8 | Cc1cccc(Cn2nnc3c2C(=O)c2ccccc2C3=O)c1 | 19.8
9 | Cc1cccc(OC(=O)c2ccncc2)c1C | 14.5
10 | C=CCOC(=O)C1=C(C)NC(SCC(=O)NC(=O)OCC)=C(C#N)C1c1cccnc1 (centres unmarked) | -32.1
11 | CC1(C)Cc2c(sc3nc(N/N=C/c4ccccc4)[nH]c(=O)c23)CO1 | -0.86
12 | CCn1c2ccccc2c2nnc(SCC(=O)Nc3ccc4c(c3)OCO4)nc21 | 7.67
13 | O=C(/C=C/c1ccccc1)NCCSCc1ccccc1 | -11.9
14 | Cc1ccc(Nc2nc(N)c([N+](=O)[O-])c(N3CCOCC3)n2)cc1 | 2.23
15 | COC(=O)CSC(=S)N1CCCC(C)C1 (centres unmarked) | 7.86
16 | COc1ccc(OC)c(NC(=O)Nc2cccc3ccccc23)c1 | -0.98
17 | CCOC(=O)CC1C(=O)NCCN1C(=O)c1ccc(Cl)cc1 (centres unmarked) | 12.9
18 | N#Cc1c(NC(=O)CSc2nnc(-c3ccco3)n2-c2ccccc2)sc2c1CCC2 | -2.82
19 | Clc1ccc(COc2ccccn2)c(Cl)c1 | 3.32

Row | SMILES | hERG current change (%, negative = inhibition) at 10uM [%]
20 | COc1ccc(CN2C(=O)c3cccnc3C2=O)cc1S(=O)(=O)NCc1ccc(C)cc1 | 1.73
21 | COCCSc1nnc(NC(=O)Cc2ccc(OC)cc2)s1 | 11.5
22 | Cc1ccc2oc(=O)c3cc(C(=O)N4CCN(C(=O)c5ccco5)CC4)sc3c2c1 | -21.5
23 | C[C@H](NC(=O)c1nc[nH]c1C(=O)N1CCN(C(=O)OC(C)(C)C)CC1)C(=O)OCc1ccccc1 | -5.68
24 | CCN1CCN(CCCNC(=O)CCCn2nc(C)c3sc4ccccc4c3c2=O)CC1 | 3.8
25 | Cc1ccc(S(=O)(=O)N(CC(=O)Nc2cccnc2)c2ccc(Br)cc2)cc1 | -50.3
26 | COC(=O)CNC(=O)COC(=O)c1ccc(OC)c([N+](=O)[O-])c1 | -19.5
27 | Cc1cc(C)nc(SCc2nnc(SCC#N)n2-c2cccc(Cl)c2)n1 | -17.6
28 | O=C(COC(=O)c1cccc(Br)c1)Nc1cccc2c1C(=O)c1ccccc1C2=O | 4.56
29 | COc1ccccc1-n1c(SCC(=O)NC2CCCC2)nc2cccnc21 | 2.59
30 | COc1ccc(-c2noc(C(C)n3nc(C)c([N+](=O)[O-])c3C)n2)cc1OC (centres unmarked) | -15.9
31 | COC(=O)Nc1nnc(/C=C/c2ccc(OC)cc2)s1 | -9.29
32 | CC(C)c1ccc(O)c(NC(=O)c2cncc(Br)c2)c1 | 1.03
33 | Cc1ccc(NC(=O)CN(C)C(=O)c2ccc(NS(=O)(=O)c3ccc4[nH]c(=O)[nH]c4c3)cc2)cc1 | -17
34 | CCc1nc(C)cn1S(=O)(=O)c1cc(Br)c(C)cc1OC | -4.01
35 | O=C(NCCS(=O)(=O)NC1CCCC1)c1ccc(F)cc1 | 9.48
36 | CC(=O)Oc1ccc2ccccc2c1C(NC(=O)C(C)C)c1cccc([N+](=O)[O-])c1 (centres unmarked) | -24.7
37 | O=C(OCc1cn(-c2ccc(Cl)c(Cl)c2)nn1)c1ccccc1Cl | -5.05
38 | CC(C)OC(=O)NC(c1ccccc1)C(Cl)(Cl)Cl (centres unmarked) | -23.5

Row | SMILES | hERG current change (%, negative = inhibition) at 10uM [%]
39 | CN(C(=O)c1ccc(=O)n(Cc2ccc(Cl)cc2)c1)c1ccccc1 | 1.11
40 | Cc1nc2c(O)cccc2cc1CO | 8.32
41 | COc1ccc(CN2CCNC(=O)C2CC(=O)NCCSc2nccn2C)cc1OC (centres unmarked) | 14.5
42 | Cc1cc(C)n(C(=O)CCCn2nc(C)c([N+](=O)[O-])c2C)n1 | -20.4
43 | Cc1cc(-c2cc(C(=O)NC3CCCC3)on2)nc(NC2CCCC2)n1 | 4.57
44 | CCOc1ccc(C(=O)NCC(c2ccco2)N2CCOCC2)cc1 (centres unmarked) | 6.48
45 | COC(=O)C1=C(C)N(CC(C)C)C(=O)C1 | 6.07
46 | CCN(CC(=O)Nc1ccc(NC(C)=O)cc1)C(=O)COc1ccc2ccccc2c1 | -10.1
47 | O=C(O)CSc1ccnc2cc(Cl)ccc12 | 16.2
48 | CCC(=O)Nc1cc(ON=C(C)C)cc([N+](=O)[O-])c1 | 9.92
49 | CC(C)CCN1C(=O)CCC1(C)C(=O)NC1CCCCCCC1 (centres unmarked) | 10.8
50 | CCn1c2ccccc2c2cc(NC(=O)CSc3nnnn3-c3ccccc3)ccc21 | 1.69
51 | CC(=O)Nc1ccc(NC(=O)CSc2nnc(-c3cccnc3)o2)cc1 | 7.42
52 | CN1C(=O)c2ccccc2N(C)C1c1cccs1 (centres unmarked) | -6.57
53 | Cc1ccc(S(=O)(=O)N(C)C)cc1NC(=O)c1cncc(Br)c1 | -6.57
54 | O=C1CN(C(=O)CSc2nc(-c3ccc(Cl)cc3)cs2)c2ccccc2N1 | 13.9
55 | COc1ccc(-c2cc(=O)oc3cc(OC(C)C(=O)NCCCn4ccnc4)ccc23)cc1 (centres unmarked) | -50.8
56 | COc1ccc(-n2c(SCC(N)=O)nnc2-c2ccco2)cc1 | 15.5
